The results in this text go back to PubChem BioAssay (NCI).

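Grown in 96-well plates, cells were treated for 48 hours with each compound at five concentrations. Insufficient inhibition: endpoint recorded as highest concentration tested. Here, GI50 denotes the concentration required for 50% inhibition of growth. TGI: total growth inhibition.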

In this assay the test system is NCI-H322M lung. The experiment in a line: inhibition of tumour cell growth, NCI panel, 48 h.
Consider `C#C[C@]1(O)CC[C@H]2[C@@H]3CC=C4c5sc(N6CCN(C)CC6)nc5CC[C@]4(C)[C@H]3CC[C@@]21C`, for which the GI50 was 1860 nM and the TGI worked out at 3810 nM.
In the same order, the values of `Cc1cn(-c2cc(NC(=O)c3cncc(C#Cc4cnc5ccc(O[C@@H]6CCOC6)nn45)c3)cc(C(F)(F)F)c2)cn1` are 277 nM and 1030 nM.
In the same order, the values of `Nc1ccccc1NC(=O)c1ccc(NC(=O)C/C=C/c2cccnc2)cn1` are 1870 nM and over 50000 nM.
